# Reference: PubChem BioAssay AID504466 (National Center for Advancing Translational Sciences (NCATS), 2011)
# About 4,200 (1.3%) of roughly 330,000 compounds were called active. The shares of active, inactive and inconclusive entries below differ from those in the screen. Calls follow the shape of the dose curve; as a rule, active = well fitted activation curve with a large enough effect; inconclusive = small, poorly fitted or top-dose-only effect; inactive = no such curve, though single readings can be large or run the other way. Where the call is inconclusive, the potency comes from a doubtful curve fit.
# Assay: qHTS screen for small molecules that induce genotoxicity in human embryonic kidney (HEK293T) cells expressing luciferase-tagged ELG1; also: nearly all actives have a fitted effect of over 60% in size; as to activity change, positive = activation: % of control where 0% means no effect
# Conditions: HEK293T ELG1-luciferase reporter, luminescence, 16 h; series mostly up to 46 µM; activity change, positive = activation: at the top concentration
# In short: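 Quantitative HTS format in 1536-well plates. HEK293T ELG1-luciferase reporter cells receive test compound and are incubated 16 hr at 37 °C, 5% CO2; ONE-Glo added, 30 min room temperature, then luminescence read.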
# Potency is read from the fitted curve at half-maximal effect; tags tell the direction and shape of the fitted curve.
Compound,"activity change, positive = activation",Potency
COc1ccc(NC(=S)NC(=O)/C=C/c2ccco2)c(OC)c1,inactive: -1.75%,
Cc1ccc(C(C)C)c(OCc2ccc(-c3nnco3)cc2)c1,,"inconclusive: 12.6 µM [activator, single point]"
Cc1ccnc(NC(=O)CSc2ccc3c(c2)OCCO3)c1,,active: 18.3 µM
CCOC(=O)C1=C(N)n2c(s/c(=C\c3ccncc3)c2=O)=C(C(=O)OCC)C1c1ccncc1 (stereo not given),,"inconclusive: 32.6 µM [activator, partial curve, poor fit]"
Cc1ccc(N/N=C/c2cccnc2)cc1,,"inconclusive: 13 µM [activator, partial curve]"
Cc1cc(NC(=O)NC(=O)c2ccccc2F)no1,,"inconclusive: 13 µM [activator, single point]"
CN1CCN(C(=O)/C=C/c2ccc([N+](=O)[O-])o2)CC1,,"inconclusive: 13 µM [activator, partial curve, poor fit]"
COc1ccc(Nc2oc(COc3cccc(C)c3)nc2C#N)cc1,,active: 16.4 µM
CCOC(=O)c1c(C)oc2cc(Cl)c(O)c(CN(C)C)c12,,"inconclusive: 23.1 µM [activator, partial curve, poor fit]"
O=C(NCCCn1ccnc1)/C(=C\c1ccc(Br)cc1)NC(=O)c1ccccc1,inactive: -3.26%,
COc1ccccc1C(=O)COC(=O)Cn1[nH]c(=O)c2ccccc2c1=O,inactive: -6.44%,
Cc1ccc2sc(N(CCCN(C)C)C(=O)c3ccc(S(=O)(=O)N4CCc5ccccc5C4)cc3)nc2c1C,,"inconclusive: 23.1 µM [activator, single point]"
CCCC(NC(=O)C(C)Sc1nnnn1C1CC1)c1ccccc1 (stereo not given),inactive: 2.67%,
CC(=O)NCc1ccc(S(=O)(=O)N2CCN(S(=O)(=O)c3ccc4ccccc4c3)CC2)cc1,,"inconclusive: 23.1 µM [activator, single point]"
CC1=C(c2ccccc2)[N+](=O)C2(CCCC2)N1[O-],inactive: 1.58%,
CNc1ccccc1-n1ccc(-c2ccccc2)n1,,"inconclusive: 29.1 µM [activator, single point]"
CC1CCCN(C(=O)Cn2nnc(-c3ccccc3F)n2)C1 (stereo not given),,"inconclusive: 25.1 µM [activator, partial curve, poor fit]"
CCc1ccc(CNC(=O)c2cc3c(C)nc4ccccc4c3o2)cc1,,"inconclusive: 23.1 µM [activator, single point]"
COc1ccccc1Nc1nc(N)nc(CSc2ncccn2)n1,,"inconclusive: 14.6 µM [activator, partial curve]"
CCN(CC)c1nc(-c2ccc(Cl)cc2)cc(C(F)(F)F)c1C#N,inactive: -3.15%,
